The structures appear in SMILES notation. Out of some 48,000 compounds screened, about 120 (0.25%) were called active. Not shown: some 4% with an inconclusive outcome. The call rests on the fitted dose curve; in most records, active means well fitted activation curve with a large enough effect; inconclusive means small, poorly fitted or top-dose-only effect, or another doubt; inactive means no such curve, though single readings can be large or run the other way. This is one part of the list.

The test is described as follows: Primary qHTS for Identification of Small Molecule Activators of Huntingtin-Antisense Promoter Activity. Further: nearly all actives have a fitted effect of over 55% in size. To be noted: HEK293 HTT-AS promoter firefly luciferase reporter (activity 0% = vehicle and -100% = no light), 24 h; series mostly up to 57.5 µM; activity change, positive = activation: at the top concentration. Put shortly:
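Luminescence was read after Dual-Glo reagent and a 10 min room-temperature incubation. Values were normalized to vehicle (0% activity) and zero RLU (-100% activity). Reporter HEK293 cells had been exposed to compounds (up to 57.5 uM final) for 24 h.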
(Quantitative high-throughput screening tests each substance at several concentrations.)
Take `O=C(CSc1n[nH]c(-c2ccc(F)cc2)n1)NCc1ccccc1Cl`: the “activity change, positive = activation” value is inactive: -26.1%. Then `COc1ccc(C2C=C(c3ccc(Cl)cc3)Nc3nc(-c4ccc(Cl)cc4)nn32)cc1` (centres undefined), with inactive: -92.5%. The figure for `CC(=O)Nc1ccc2nc3c(=O)n(C)c(=O)n(C)c3nc2c1C` is inactive: -1.91%; for `CCOC(=O)Cn1c(=O)oc2cc(S(=O)(=O)N3CCN(c4cccc(C)c4)C(C)C3)ccc21` (centres undefined) it is inactive: -22.9%. The figure for `COc1ccccc1CNC(=O)C(C)n1c(=O)cc(-c2ccccc2)c2c(C)nn(C)c21` (centres undefined) is inactive: -29%; for `Cc1nc2cccnc2n1-c1cccc(C(=O)NCCN(C)C)c1` it is inactive: -1.32%; for `COc1ccc(-c2cc(C(F)F)nn2-c2ccc(S(N)(=O)=O)cc2)cc1F` it is inactive: -15.6%. Regarding `N#Cc1nc(-c2ccc(COc3ccccc3)o2)oc1N1CCN(c2ccccc2)CC1`, the “activity change, positive = activation” value is inactive: -4.09%. Take `CCc1ccc(CNC(=O)c2cnc3sc(N4CCOCC4)nn3c2=O)cc1`: the “activity change, positive = activation” value was inactive: -4.9%. The figure for `Cc1cccc(OC(=O)c2cc(-c3ccc(C)c(C)c3)on2)c1` is inactive: 1.84%.

Take `COc1ccc(Cl)cc1NC(=O)N1CCN(Cc2cc(=O)n3nc(-c4ccccc4)sc3n2)CC1`: the “activity change, positive = activation” value was inactive: -0.307%. Then `O=C1CCSC2(C(=O)N(Cc3ccc(F)cc3)c3ccccc32)N1c1ccc(Cl)cc1` (centres undefined), with inactive: -31.6%; and `COc1ccc(OC)c(Nc2sc(C(=O)c3ccccc3)c(N)c2S(=O)(=O)c2ccccc2)c1`, with inactive: -20.3%; and `O=c1oc2ccccc2c(N2CCN(c3ccc(F)cc3)CC2)c1CN1CCCC1`, with inactive: -9.98%. As to `Cc1cccc(N2CCN(S(=O)(=O)c3cc(C(=O)Nc4ccc(Oc5ccccc5)cc4)ccc3F)CC2)c1C`, the “activity change, positive = activation” value is inactive: -30.3%. The figure for `O=C(Cn1ncc2c([nH]c3ccccc32)c1=O)NCCCN1CCN(c2ccccc2)CC1` is inactive: -18.1%. On to `Cc1ccccc1NC(=O)Cn1c(=O)n(CCc2ccccc2)c(=O)c2ccccc21`, for which the “activity change, positive = activation” value was inactive: -18.5%. Then `CCc1nn2c(=O)cc(COC(=O)c3ccccc3NC(=O)COc3ccc(C)c(C)c3)nc2s1`, with inactive: 4.5%; and `COc1ccc(CNC(=O)C(C)n2nc(C)c3c(C)n(-c4ccccc4)nc3c2=O)c(OC)c1` (centres undefined), with inactive: 0%. Then `Cc1oc(-c2ccccc2F)nc1CN1CCC(C(=O)NCCc2ccccc2)CC1`, with inactive: -19.2%; and `CC(C(=O)Nc1ccc(OC(F)(F)F)cc1)N1Cc2ccccc2C1=O` (centres undefined), with inactive: -14.3%. The figure for `CCCCn1cc(S(=O)(=O)c2cc(C)ccc2C)c(=O)c2cc(F)c(F)cc21` is inactive: -1.69%. For `Cc1c(Cl)cccc1-n1ncc(C(=O)NC2CCCCC2)c1C1CCN(C(=O)OC(C)(C)C)CC1`, the “activity change, positive = activation” value was inactive: -2.64%. Then `CCOC(=O)c1cccc(NC(=O)c2oc3c(c2C)-c2nn(CC)cc2CC3)c1`, with inactive: 5.8%; and `CCOc1ccc(CCNC(=O)CSc2nnnn2-c2ccccc2)cc1OCC`, with inactive: -18.7%. The figure for `COc1ccc(Br)cc1[C@@H]1Nc2ccc(C(=O)O)cc2[C@@H]2C=CC[C@@H]21` is inactive: -13%.

Consider `Cn1ncc2c(N3CCN(c4ccccc4F)CC3)ncnc21`, for which the “activity change, positive = activation” value is inactive: -3.15%. The figure for `CCOc1ccc(/C=C/c2nc(C#N)c(NC(C)c3ccccc3)o2)cc1` (centres undefined) is inactive: -12.7%. The figure for `COc1ccc(C)cc1NC(=O)Nc1cccc(OCc2cc(=O)n3ccc(C)cc3n2)c1` is inactive: 11.5%; for `Cc1ccccc1OCC(=O)NCC(c1ccc(Cl)cc1)N1CCCCC1` (centres undefined) it is inactive: -22.2%.

With `CC(=O)N1CCc2cc(Br)cc(S(=O)(=O)N3CCC(C(=O)Nc4ccc(C(C)C)cc4)CC3)c21`, the “activity change, positive = activation” value is inactive: -23.8%. `COc1ccc(C(=O)CC2(O)C(=O)N(Cc3cccc(C(F)(F)F)c3)c3ccccc32)cc1` (centres undefined): the “activity change, positive = activation” value is inactive: -38.3%. Then `CCOC(=O)c1ccc(-n2c(CCC(=O)O)ccc2-c2ccccc2)cc1`, with inactive: -9.66%. Then `COc1ccc(N2CCN(S(=O)(=O)c3ccc(-c4ccno4)cc3OC)CC2)cc1`, with inactive: -13.5%. For `COc1cccc(C(=O)N2c3ncnn3C3(CCCCC3)[C@@H]3CCCC[C@@H]32)c1`, the “activity change, positive = activation” value is inactive: -21.8%. The figure for `CCCCc1ccc(NC(=O)c2ccc3c(c2)CCN3S(=O)(=O)CC)cc1` is inactive: -46.9%; for `CN(Cc1ccccc1)S(=O)(=O)c1ccc(NC(=O)c2cc(=O)c3ccccc3o2)cc1` it is inactive: -34%. Take `CCc1cccc(C)c1NC(=O)CN1C(=O)C2(SCC(=O)N2c2cccc(F)c2)c2ccccc21` (centres undefined): the “activity change, positive = activation” value is inactive: -17%. As for `COc1cc(OC)c(NC2=C(c3ccc(C(F)(F)F)cc3)C(=O)c3ccccc32)cc1Cl`, the “activity change, positive = activation” value is inactive: -36.3%. Then `O=C(Cn1c(=O)nc(-c2ccccc2)c2ccccc21)N1CCN(c2ccc(F)cc2)CC1`, with inactive: 4.96%; and `COc1cc(NC(=O)C(Cc2ccccc2)NS(=O)(=O)c2cccs2)cc(OC)c1` (centres undefined), with inactive: -31.2%; and `Cc1noc(/C=C/c2ccccc2F)c1S(=O)(=O)N1CCC(C(=O)NCC(C)c2ccccc2)CC1` (centres undefined), with inactive: 14.8%. Then `OCCCn1c(-c2ccc(F)cc2)csc1=Nc1ccc(F)cc1`, with inactive: -20.5%; and `CC(C)Oc1ccccc1NC(=O)CSc1nccn1C`, with inactive: -6.86%.

Take `O=C(O)CSc1nc2ccc(NC(=O)COc3ccc(Cl)cc3)cc2s1`: the “activity change, positive = activation” value was inactive: -14.2%. As for `Cc1ccc(-n2c(=O)c3c(c4cc(C)ccc4n3C)n(CC(=O)c3ccc(Cl)cc3)c2=O)cc1`, the “activity change, positive = activation” value is inactive: -11.5%.

For the compound `C#CCn1c(=O)n(-c2cccc(Cl)c2C)c(=O)c2c3c(sc21)CN(C(C)=O)CC3`, the “activity change, positive = activation” value is inactive: -11.8%. The figure for `CCOc1ccc(CNC(=O)Cn2nc(C)c3c(C)n(-c4ccc(C)cc4)nc3c2=O)cc1` is inactive: -23.4%; for `CC(=O)c1ccc(-n2c(CCC(=O)O)ccc2-c2cccs2)cc1` it is inactive: -1.41%. For the compound `O=C(CCS(=O)(=O)c1ccccc1)N(Cc1cccnc1)c1nc2ccc(F)cc2s1`, the “activity change, positive = activation” value was inactive: -18.8%. Then `COc1ccc(-c2cnc(C)o2)cc1S(=O)(=O)Nc1ccc(OC(F)(F)F)cc1`, with inactive: -21.9%; and `Cc1ccc(C)c(CSc2nnc(C)n3c2cc2sccc23)c1`, with inactive: -27.6%; and `COc1ccccc1CNC(=O)CSc1ccc(-c2sc(-c3ccccc3)nc2C)nn1`, with inactive: -7.84%. With `CCC(=O)N1CCc2cc(S(=O)(=O)NC(Cc3ccccc3)C(=O)Nc3ccccc3C)ccc21` (centres undefined), the “activity change, positive = activation” value was inactive: -4.25%.

On to `O=S(=O)(c1ccc(Cl)cc1)c1nc(-c2ccco2)oc1SCc1ccccc1F`, for which the “activity change, positive = activation” value is inactive: -16.1%. The figure for `CC(=O)c1cccc(NS(=O)(=O)c2cc3c(cc2C)n(C)c(=O)c(=O)n3C)c1` is inactive: -4.74%; for `Cc1cccc(NC(=O)C(=O)NCC(c2ccc3c(c2)OCO3)N2CCN(c3ccccc3)CC2)c1` (centres undefined) it is inactive: -11.2%; for `O=C(Nc1sc2c(c1C(=O)Nc1ccccc1)CCC2)c1ccc(Br)cc1` it is inactive: -17.3%. Then `CCOCCCNC(=O)C(c1ccccc1)N1Cc2ccccc2C1=O` (centres undefined), with inactive: 7.64%. The figure for `Cc1ccc(NC(=O)c2ccc(CN3CC(=O)N4CCCCC4C3=O)cc2)c(C)c1` (centres undefined) is inactive: -4.6%; for `COC(=O)c1ccc(NC(=O)CSc2nnc3c4ccccc4n(C(C)C)c3n2)cc1` it is inactive: -0.427%. Take `CCOc1cccc(C(=O)Nc2cc(C)c(O)c(-c3nc4ncccc4o3)c2)c1`: the “activity change, positive = activation” value was inactive: -4.86%.

For the compound `Cc1ccc2c(=O)c(C(=O)c3ccc(F)cc3)cn(CC(=O)Nc3ccc4c(c3)OCCO4)c2n1`, the “activity change, positive = activation” value is inactive: -28.7%. Then `COc1cccc(Cc2nc3ccccc3nc2SCC(=O)N2CCCc3ccccc32)c1`, with inactive: -10.8%. The figure for `COc1ccc(CNC(=O)CC(c2ccc(OC)cc2)N2Cc3ccccc3C2=O)cc1` (centres undefined) is inactive: -13.2%; for `CCOC(=O)c1c(NC(=O)c2cc(=O)c3cc(C)cc(C)c3o2)sc(C)c1C` it is inactive: -7.41%. Then `O=C(CSc1nccn1C1CCCC1)Nc1cc(C(F)(F)F)ccc1Cl`, with inactive: -6.48%. Turning to `Cc1ccc(-c2nn(CC(=O)NCc3ccccc3)c3c2cnc2ccc(F)cc23)cc1C`, the “activity change, positive = activation” value was inactive: 19.6%.

In the case of `O=C(c1ccc2c(c1)N(Cc1ccccc1)C(=O)c1ccccc1S2(=O)=O)N1CCc2ccccc21`, the “activity change, positive = activation” value is inactive: -18.6%.

In the case of `COc1ccc(OC)c(-n2c3c(cc(-c4nc(-c5ccc(Cl)cc5)cs4)c2=O)C(=O)CC(C)(C)C3)c1`, the “activity change, positive = activation” value was inactive: -9.36%. The figure for `CCCNC(=O)CN1C(=O)COc2ccc(S(=O)(=O)N3CCC(C)CC3)cc21` is inactive: -14.5%.

In the case of `Cc1c(NC(=O)C(C)(C)Oc2ccc(Cl)cc2)cccc1-c1nc2ccccc2o1`, the “activity change, positive = activation” value is inactive: -42.3%. The figure for `O=C(c1cc(-c2ccc(F)cc2)on1)N1CCN(c2ccc(F)cc2)CC1` is inactive: -13.1%; for `CCCCNS(=O)(=O)c1ccc2nc(-c3cccnc3)cc(C(=O)NC(C)C)c2c1` it is inactive: -22%. The figure for `Cn1nc(C(=O)N2CCN(c3ccccc3F)CC2)c2c1-c1ccccc1S(=O)(=O)C2` is inactive: 18.9%.

As for `O=C(CN1C(=O)c2cccc3cccc1c23)Nc1ccccc1Br`, the “activity change, positive = activation” value was inactive: -7.71%. The figure for `CCCC1N=C2c3ccccc3N=C(SCC(=O)NCCc3ccc(Cl)cc3)N2C1=O` (centres undefined) is inactive: 12.4%; for `CCOC(=O)c1ccccc1NC(=O)c1cc2ccc3cccnc3c2[nH]1` it is inactive: 10.3%; for `CCCOC(=O)CSc1nnc(-c2ccccc2)o1` it is inactive: -16.4%.

In the case of `CCn1c(C(=O)Nc2ccc(C)cc2C)cc2sc(Cl)cc21`, the “activity change, positive = activation” value is inactive: -27.1%.

On to `CCOC(=O)COc1ccc(C)cc1C(=O)c1ccn2nc(-c3ccc(Cl)cc3)cc2n1`, for which the “activity change, positive = activation” value was inactive: -14.2%. Then `CC(C)c1ccc(CNc2nc(-c3ccco3)nn2S(=O)(=O)c2ccc(F)cc2)cc1`, with inactive: 6.29%; and `Cc1cccc(N2CCN(Cc3cc(=O)oc4cc(C)ccc34)CC2C)c1` (centres undefined), with inactive: -4.8%. Then `Cc1ccccc1N1CC(c2nnc(NC(=O)c3ccco3)s2)CC1=O` (centres undefined), with inactive: -9.34%; and `CCOc1ccc(OCC(=O)NCCS(=O)(=O)N2CCN(c3cccc(Cl)c3)CC2)cc1`, with inactive: -27.2%.

Take `Cc1cccc(NC(=O)N2CCC(N3CCN(Cc4ccccc4)C(=O)C3=O)CC2)c1C`: the “activity change, positive = activation” value is inactive: -1.1%. Then `CCc1cc2c(cc3c(=O)n(CC(=O)N4CCN(c5cccc(C)c5C)CC4)nc(CC)n32)s1`, with inactive: -4.13%; and `CCc1ccccc1NC(=O)CCC(=O)N1CC(C)Oc2ccc(C)cc21` (centres undefined), with inactive: -12.6%; and `COc1ccc(CCNCc2c(C(=O)O)c(C)n(Cc3cccc(Cl)c3)c2C)c(OC)c1OC`, with inactive: -11.1%. The figure for `O=C(Cn1cc(C(=O)c2ccccc2)c(=O)c2cc3c(cc21)OCCO3)Nc1ccc(F)c(F)c1` is inactive: -36.4%. Then `COc1ccc(CCNC(=O)c2cc3c(=O)n(C)c4ccccc4c3s2)cc1OC`, with inactive: -13.9%. With `Cc1ccc(C)c(N2CCN(S(=O)(=O)c3ccc(C(=O)N(C)C)s3)CC2)c1`, the “activity change, positive = activation” value was inactive: -26.2%. The figure for `O=C(Cn1cc(S(=O)(=O)Cc2ccccc2Cl)c2ccccc21)NCCc1ccccc1` is inactive: -22.9%. The figure for `COc1ccc(NC(=O)c2c(NC(=O)COc3ccccc3)sc3c2CCCCC3)cc1` is inactive: -5.35%.

The record behind these values is PubChem BioAssay AID1508624 (National Center for Advancing Translational Sciences (NCATS), 2021).
